{"source": "the supplement of paper PMC8728848", "binders": {"B1": {"name": "AFL5 (Aspergillus fumigatus), Q4WB00 (protein)", "chain": "MDNFMEMTKKLGHQPELLRLRALDATYDDALEGKLVVAPLDMSEPGKKILDSGTADGTWLRNVRSKQSVPHDYYGSDVEGELFPKDPDGITYFAHSFKDPWPQQYLGFFDLVHIRGSLAGSAPEGPAPVIQNLTTLLKPGGWVQLMEMNAFSPPPNGPAMTDFAKMASEMFTGIGVGDFANNNKSMLEDAGLKNVQEKRVIVNLGKKAKPELHDQSIHGVTGPIVPLTSVARTVKSSFTGEQLDALPARVKEELETEGGQVEMIIAFGQKA"}}, "experiment_in_all_cases": "glycan array binding signal (z-score within array); higher = stronger binding", "conditions_in_all_cases": "glycan notation: IUPAC condensed, linker removed", "key": {"[1]": {"molecular_target": "Fuc(a1-2)[GalNAc(a1-3)]Gal(b1-3)GlcNAc(b1-3)GalNAc", "outline": "(§1)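 Glycan array binding is given as a within-array Z-score, which can be read as non-binding when negative. The arrays, 3228 of them, came from the Consortium for Functional Glycomics database and were retained only where the protein sequence was available. Z-scores were averaged across arrays of the same protein sequence at different concentrations or buffers and across linkers.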"}, "[2]": {"molecular_target": "Fuc(a1-2)[GalNAc(a1-3)]Gal(b1-3)GlcNAc(b1-6)GalNAc", "outline": "as §1"}, "[3]": {"molecular_target": "Fuc(a1-2)[GalNAc(a1-3)]Gal(b1-4)Glc", "outline": "as §1"}, "[4]": {"molecular_target": "Fuc(a1-2)[GalNAc(a1-3)]Gal(b1-4)GlcNAc", "outline": "as §1"}, "[5]": {"molecular_target": "Fuc(a1-2)[GalNAc(a1-3)]Gal(b1-4)GlcNAc(b1-2)Man", "outline": "as §1"}, "[6]": {"molecular_target": "Fuc(a1-2)[GalNAc(a1-3)]Gal(b1-4)GlcNAc(b1-2)Man(a1-3)[Fuc(a1-2)[GalNAc(a1-3)]Gal(b1-4)GlcNAc(b1-2)Man(a1-6)]Man(b1-4)GlcNAc(b1-4)GlcNAc", "outline": "as §1"}, "[7]": {"molecular_target": "Fuc(a1-2)[GalNAc(a1-3)]Gal(b1-4)GlcNAc(b1-2)Man(a1-3)[Fuc(a1-2)[GalNAc(a1-3)]Gal(b1-4)GlcNAc(b1-2)Man(a1-6)]Man(b1-4)GlcNAc(b1-4)[Fuc(a1-6)]GlcNAc", "outline": "as §1"}, "[8]": {"molecular_target": "Fuc(a1-2)[GalNAc(a1-3)]Gal(b1-4)GlcNAc(b1-3)Gal(b1-4)GlcNAc", "outline": "as §1"}, "[9]": {"molecular_target": "Fuc(a1-2)[GalNAc(a1-3)]Gal(b1-4)GlcNAc(b1-3)Gal(b1-4)GlcNAc(b1-3)Gal(b1-4)GlcNAc", "outline": "as §1"}, "[10]": {"molecular_target": "Fuc(a1-2)[GalNAc(a1-3)]Gal(b1-4)GlcNAc(b1-3)GalNAc", "outline": "as §1"}, "[11]": {"molecular_target": "Fuc(a1-2)[GalNAc(a1-3)]Gal(b1-4)GlcNAc(b1-3)[Fuc(a1-2)[GalNAc(a1-3)]Gal(b1-4)GlcNAc(b1-6)]GalNAc", "outline": "as §1"}, "[12]": {"molecular_target": "Fuc(a1-2)[GalNAc(a1-3)]Gal(b1-4)GlcNAc(b1-6)GalNAc", "outline": "as §1"}, "[13]": {"molecular_target": "Fuc(a1-2)[GalNAc(a1-3)]Gal(b1-4)[Fuc(a1-3)]GlcNAc", "outline": "as §1"}, "[14]": {"molecular_target": "Fuc(a1-2)[GalNAc(a1-3)]Gal(b1-4)[Fuc(a1-3)]GlcNAc(b1-3)GalNAc", "outline": "as §1"}, "[15]": {"molecular_target": "Fuc(a1-2)[GalNAc(a1-4)]Gal(b1-4)GlcNAc", "outline": "as §1"}, "[16]": {"molecular_target": "Fuc(a1-2)[GalNAc(b1-3)]Gal", "outline": "as §1"}, "Fuc(a1-3)GlcNAc": {"molecular_target": "Fuc(a1-3)GlcNAc", "outline": "as §1"}, "[17]": {"molecular_target": "Fuc(a1-3)[Gal(b1-4)]Glc6S", "outline": "as §1"}, "[18]": {"molecular_target": "Fuc(a1-3)[Gal(b1-4)]GlcNAc", "outline": "as §1"}, "[19]": {"molecular_target": "Fuc(a1-3)[Gal(b1-4)]GlcNAc(b1-2)Man", "outline": "as §1"}, "[20]": {"molecular_target": "Fuc(a1-3)[Gal(b1-4)]GlcNAc(b1-2)Man(a1-3)[Fuc(a1-3)[Gal(b1-4)]GlcNAc(b1-2)Man(a1-6)]Man(b1-4)GlcNAc(b1-4)GlcNAc", "outline": "as §1"}, "[21]": {"molecular_target": "Fuc(a1-3)[Gal(b1-4)]GlcNAc(b1-2)Man(a1-3)[Fuc(a1-3)[Gal(b1-4)]GlcNAc(b1-2)Man(a1-6)]Man(b1-4)GlcNAc(b1-4)[Fuc(a1-6)]GlcNAc", "outline": "as §1"}, "[22]": {"molecular_target": "Fuc(a1-3)[Gal(b1-4)]GlcNAc(b1-3)Gal(b1-3)[Fuc(a1-4)]GlcNAc", "outline": "as §1"}, "[23]": {"molecular_target": "Fuc(a1-3)[Gal(b1-4)]GlcNAc(b1-3)Gal(b1-4)[Fuc(a1-3)]GlcNAc", "outline": "as §1"}, "[24]": {"molecular_target": "Fuc(a1-3)[Gal(b1-4)]GlcNAc(b1-3)Gal(b1-4)[Fuc(a1-3)]GlcNAc(b1-3)Gal(b1-4)[Fuc(a1-3)]GlcNAc", "outline": "as §1"}, "[25]": {"molecular_target": "Fuc(a1-3)[Gal(b1-4)]GlcNAc(b1-3)GalNAc", "outline": "as §1"}, "[26]": {"molecular_target": "Fuc(a1-3)[Gal(b1-4)]GlcNAc(b1-6)GalNAc", "outline": "as §1"}, "[27]": {"molecular_target": "Fuc(a1-3)[Gal(b1-4)]GlcNAc(b1-6)[Gal(b1-3)GlcNAc(b1-3)]Gal(b1-4)Glc", "outline": "as §1"}, "[28]": {"molecular_target": "Fuc(a1-3)[Gal(b1-4)]GlcNAc6S", "outline": "as §1"}, "[29]": {"molecular_target": "Fuc(a1-3)[Gal3S(b1-4)]Glc", "outline": "as §1"}, "[30]": {"molecular_target": "Fuc(a1-3)[Gal3S(b1-4)]GlcNAc", "outline": "as §1"}, "[31]": {"molecular_target": "Fuc(a1-3)[Gal3S(b1-4)]GlcNAc6S", "outline": "as §1"}, "[32]": {"molecular_target": "Fuc(a1-3)[GalNAc(b1-4)]GlcNAc", "outline": "as §1"}, "[33]": {"molecular_target": "Fuc(a1-3)[GalNAc(b1-4)]GlcNAc6S", "outline": "as §1"}, "Fuc(a1-4)GlcNAc": {"molecular_target": "Fuc(a1-4)GlcNAc", "outline": "as §1"}, "Fuc(b1-3)GlcNAc": {"molecular_target": "Fuc(b1-3)GlcNAc", "outline": "as §1"}, "Gal(a1-2)Gal": {"molecular_target": "Gal(a1-2)Gal", "outline": "as §1"}}, "note": "The other results are listed elsewhere or left out."}
{"binder": "B1", "values": [{"measurement": "glycan array binding signal (z-score)", "setting": "[1]", "result": -0.253}, {"measurement": "glycan array binding signal (z-score)", "setting": "[2]", "result": -0.237}, {"measurement": "glycan array binding signal (z-score)", "setting": "[3]", "result": 0.18}, {"measurement": "glycan array binding signal (z-score)", "setting": "[4]", "result": -0.059}, {"measurement": "glycan array binding signal (z-score)", "setting": "[5]", "result": -0.322}, {"measurement": "glycan array binding signal (z-score)", "setting": "[6]", "result": 0.442}, {"measurement": "glycan array binding signal (z-score)", "setting": "[7]", "result": 0.578}, {"measurement": "glycan array binding signal (z-score)", "setting": "[8]", "result": -0.015}, {"measurement": "glycan array binding signal (z-score)", "setting": "[9]", "result": 0.067}, {"measurement": "glycan array binding signal (z-score)", "setting": "[10]", "result": -0.267}, {"measurement": "glycan array binding signal (z-score)", "setting": "[11]", "result": 0.172}, {"measurement": "glycan array binding signal (z-score)", "setting": "[12]", "result": -0.529}, {"measurement": "glycan array binding signal (z-score)", "setting": "[13]", "result": -0.396}, {"measurement": "glycan array binding signal (z-score)", "setting": "[14]", "result": -0.259}, {"measurement": "glycan array binding signal (z-score)", "setting": "[15]", "result": -0.503}, {"measurement": "glycan array binding signal (z-score)", "setting": "[16]", "result": -0.258}, {"measurement": "glycan array binding signal (z-score)", "setting": "Fuc(a1-3)GlcNAc", "result": -0.058}, {"measurement": "glycan array binding signal (z-score)", "setting": "[17]", "result": 0.457}, {"measurement": "glycan array binding signal (z-score)", "setting": "[18]", "result": -0.414}, {"measurement": "glycan array binding signal (z-score)", "setting": "[19]", "result": -0.758}, {"measurement": "glycan array binding signal (z-score)", "setting": "[20]", "result": 0.048}, {"measurement": "glycan array binding signal (z-score)", "setting": "[21]", "result": 0.779}, {"measurement": "glycan array binding signal (z-score)", "setting": "[22]", "result": -0.27}, {"measurement": "glycan array binding signal (z-score)", "setting": "[23]", "result": -0.011}, {"measurement": "glycan array binding signal (z-score)", "setting": "[24]", "result": -0.509}, {"measurement": "glycan array binding signal (z-score)", "setting": "[25]", "result": -0.016}, {"measurement": "glycan array binding signal (z-score)", "setting": "[26]", "result": -0.3}, {"measurement": "glycan array binding signal (z-score)", "setting": "[27]", "result": 0.59}, {"measurement": "glycan array binding signal (z-score)", "setting": "[28]", "result": -0.084}, {"measurement": "glycan array binding signal (z-score)", "setting": "[29]", "result": 0.237}, {"measurement": "glycan array binding signal (z-score)", "setting": "[30]", "result": 0.045}, {"measurement": "glycan array binding signal (z-score)", "setting": "[31]", "result": 0.356}, {"measurement": "glycan array binding signal (z-score)", "setting": "[32]", "result": 0.094}, {"measurement": "glycan array binding signal (z-score)", "setting": "[33]", "result": 0.169}, {"measurement": "glycan array binding signal (z-score)", "setting": "Fuc(a1-4)GlcNAc", "result": -0.245}, {"measurement": "glycan array binding signal (z-score)", "setting": "Fuc(b1-3)GlcNAc", "result": 0.113}, {"measurement": "glycan array binding signal (z-score)", "setting": "Gal(a1-2)Gal", "result": -0.725}]}
